# From PubChem BioAssay AID1460 (National Center for Advancing Translational Sciences (NCATS), 2008)
# About 5,800 (2.1%) of roughly 270,000 compounds were called active. Inconclusive results, whose numbers are uncertain, are shown with a selection of clear calls. Calls follow the shape of the dose curve; as a rule, active = well fitted inhibition curve with a large enough effect; inconclusive = small, poorly fitted or top-dose-only effect; inactive = flat fitted curve, though single readings scatter. Where the call is inconclusive, the potency comes from a doubtful curve fit.
# Biological target: Microtubule-associated protein tau (Homo sapiens) (UniProt P10636)
# UniProt P10636, sequence (P10636 whole entry, looked up): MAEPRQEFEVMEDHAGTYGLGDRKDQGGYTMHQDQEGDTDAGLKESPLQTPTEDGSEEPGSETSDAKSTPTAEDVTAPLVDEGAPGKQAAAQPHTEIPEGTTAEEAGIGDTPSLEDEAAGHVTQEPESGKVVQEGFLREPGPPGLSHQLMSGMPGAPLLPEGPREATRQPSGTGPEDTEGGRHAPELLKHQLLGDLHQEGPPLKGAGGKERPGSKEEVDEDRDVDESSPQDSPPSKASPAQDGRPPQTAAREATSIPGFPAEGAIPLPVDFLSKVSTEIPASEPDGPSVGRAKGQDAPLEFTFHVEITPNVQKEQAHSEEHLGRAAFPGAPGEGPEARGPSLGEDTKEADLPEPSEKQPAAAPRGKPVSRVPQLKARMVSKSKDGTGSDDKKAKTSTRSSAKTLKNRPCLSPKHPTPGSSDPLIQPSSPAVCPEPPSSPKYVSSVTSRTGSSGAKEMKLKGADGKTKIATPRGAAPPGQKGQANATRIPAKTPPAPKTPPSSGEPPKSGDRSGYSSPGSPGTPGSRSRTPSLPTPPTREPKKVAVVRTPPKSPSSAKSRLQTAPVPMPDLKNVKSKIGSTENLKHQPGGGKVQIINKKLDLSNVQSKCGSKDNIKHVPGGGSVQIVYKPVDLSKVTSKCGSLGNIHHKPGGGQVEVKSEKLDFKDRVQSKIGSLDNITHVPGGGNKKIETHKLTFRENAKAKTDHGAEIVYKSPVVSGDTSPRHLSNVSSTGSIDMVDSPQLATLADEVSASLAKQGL
# Assay: qHTS for Inhibitors of Tau Fibril Formation, Thioflavin T Binding; also: nearly all actives have a fitted effect of over 55% in size
# Conditions: recombinant tau K18 P301L (four-repeat tau fragment), heparin-induced fibrillization, ThT fluorescence; series mostly up to 57.4 µM; activity, negative = inhibition: at the top concentration
# Description: NIH Molecular Libraries Probe Production Network [MLPCN]
# NIH Chemical Genomics Center [NCGC]
# Assay Provider: Carlo Ballatore, University of Pennsylvania
# The microtubule-associated protein tau is an abundant protein in the axons of neurons that stabilizes microtubules. With its ability to modulate microtubule dynamics, tau contributes directly or indirectly, to key structural and regulatory cellular functions. Particularly important is the influence tau exerts on axonal transport, which allows signaling molecules, trophic factors and other essential cellular constituents to travel along the axons. Under pathological conditions, tau becomes sequestered into insoluble aggregates called neurofibrillary tangles. This phenomenon is believed to have pathological consequences by promoting axonal transport deficits that ultimately lead to synaptic dysfunction and neuronal loss. To identify inhibitors of tau aggregation, a heparin-induced tau fibril formation assay was used that employed a recombinantly expressed fragment of tau, K18 (Q242-E372), bearing a P301L mutation (Gustke et al. 1994; Hong et al. 1998). This assay monitors tau fibrillization by Thioflavin T (ThT) fluorescence.
# Gustke, N., B. Trinczek, et al. (1994). "Domains of tau protein and interactions with microtubules." Biochemistry 33(32): 9511-22.
# Hong, M., V. Zhukareva, et al. (1998).
# Li, W. and V. M. Lee (2006).
# von Bergen, M., S. Barghorn, et al. (2001). "Mutations of tau protein in frontotemporal dementia promote aggregation of paired helical filaments by enhancing local beta-structure." J Biol Chem 276(51): 48165-74.
# NCGC Assay Protocol Summary:
# For screening, 2 uL/well human K18 P301L (15 uM unlabeled and 0.24 uM Alexa 594-labeled tau, final concentrations) in reagent buffer (100 mM sodium acetate pH 7) was dispensed into black solid 1536-well plates (Grenier) using a solenoid-based dispenser. Following transfer of 23 nL compound or DMSO vehicle by a pin tool, 2 uL/well heparin (20 uM final concentration) in reagent buffer was added and the plate centrifuged 15 s at 1000 RPM. Plates were incubated 6 hr at 37 C and then 1 uL/well ThT (30 uM final concentration) was added. After a 1 hr ambient incubation, the plates were read by an Envision (Perkin Elmer) to monitor ThT fluorescence (450/8 nm excitation and 510/23 nm emission).
# Keywords: NIH Roadmap, MLPCN, MLI, MLSMR, NCGC, qHTS, tau, tauopathies, Alzheimer's disease, fibril, neurodegeneration, aggregation
# % is scaled to controls: 0 for no effect and ±100 for the full control effect; potency is read from the fitted curve at half-maximal effect; tags tell the direction and shape of the fitted curve.
SMILES,Potency,"activity, negative = inhibition"
CCC(=O)N1CCN(c2ccc(NC(=O)c3ccc(N4CCCC4)c([N+](=O)[O-])c3)cc2)CC1,active: 0.631 µM,–
CC1(C)CC(=O)C(C=NCCO)=C(O)C1,–,inactive: 2.22%
CCOc1cc(C(C#N)N2CCCCC2)ccc1OC (stereo not given),–,inactive: -4.35%
C/C(=N/NC(=O)c1cccnc1)C1=C(O)CC(C)(C)CC1=O,–,inactive: -6.26%
Cn1c(SCC(=O)N/N=C/c2ccc([N+](=O)[O-])s2)nnc1-c1ccccc1,"inconclusive: 11.2 µM [inhibitor, partial curve]",–
Cc1cc(C)cc(NC(=O)C(=O)NCCc2c[nH]c3ccccc23)c1,"inconclusive: 12.6 µM [inhibitor, partial curve]",–
COc1ccc(-c2cnnc(N/N=C/c3ccc(O)c(O)c3)n2)cc1,active: 2.51 µM,–
Cc1ccc(Cc2c(C)nc3nc(SCC(=O)NCc4ccco4)nn3c2C)cc1,"inconclusive: 44.7 µM [inhibitor, single point]",–
NS(=O)(=O)c1ccc(NN=C2CCCCC2)c([N+](=O)[O-])c1,"inconclusive: 15.8 µM [inhibitor, partial curve]",–
CCN(CCCNC(=O)CSc1cc(=O)n(C)c2cc(Cl)ccc12)c1cccc(C)c1,"inconclusive: 0.112 µM [inhibitor, full curve]",–
CC(C)(C)NC(=O)CSc1nc(O)cc(=O)n1-c1ccccc1F,"inconclusive: 31.6 µM [inhibitor, single point]",–
Cc1cc(C)n(CC(O)Cn2c3ccc(Cl)cc3c3cc(Cl)ccc32)c(=O)n1 (stereo not given),–,inactive: -9.36%
COc1ccc2ccccc2c1C1CC(=O)N2CN(C3CCCCC3)CSC2=C1C#N (stereo not given),active: 28.2 µM,–
COC(=O)c1ccc([C@H]2Nc3ccc(S(=O)(=O)Nc4ccc(C)cc4)cc3[C@H]3C=CC[C@H]32)cc1,"inconclusive: 14.1 µM [inhibitor, partial curve]",–
O=C1CC(c2ccco2)CC(O)=C1C=Nc1cc(Cl)ccc1O (stereo not given),"inconclusive: 28.2 µM [inhibitor, single point]",–
N#CCc1ccc(C(=O)c2ccccc2)s1,"inconclusive: 22.4 µM [inhibitor, partial curve, poor fit]",–
COc1ccc(C(=O)CCN2CCCCCC2)cc1,"inconclusive: 1 µM [inhibitor, full curve]",–
CCSc1c(C(=O)NC)ccc2c1C(=O)c1ccccc1C2=O,"inconclusive: 14.1 µM [inhibitor, partial curve]",–

SMILES,Potency,"activity, negative = inhibition"
CCOc1ccc(-c2nnn(CC(=O)NCCc3c[nH]c4ccccc34)n2)cc1,"inconclusive: 0.398 µM [inhibitor, full curve]",–
Cc1nc2ccccc2c(=O)n1/N=C/c1ccc2ccccc2c1O,"inconclusive: 3.16 µM [inhibitor, partial curve]",–
COc1ccc(-c2nnc(SCC(=O)NCc3ccccc3)nc2-c2ccc(OC)c(OC)c2)cc1OC,–,inactive: -0.607%
CCN1c2ccccc2N(C)C1(C)c1ccccc1 (stereo not given),active: 4.47 µM,–
O=C(NCc1ccco1)c1c[nH]c2ccc(S(=O)(=O)Nc3ccc(F)cc3F)cc2c1=O,–,inactive: -7.2%
COCCNC(=S)N/N=C/c1ccc([N+](=O)[O-])cc1,"inconclusive: 12.6 µM [inhibitor, partial curve, poor fit]",–
CN(C)c1ccc(C(CNC(=O)c2ccccc2F)N2CCc3ccccc32)cc1 (stereo not given),"inconclusive: 15.8 µM [inhibitor, partial curve]",–
CN(C)c1ccc(N/C(=N\S(=O)(=O)c2cccs2)c2ccccc2)cc1,"inconclusive: 39.8 µM [inhibitor, single point]",–
Cn1cc(Cl)c(C(=O)NNC(=S)NC2CCCCC2)n1,–,inactive: -13.2%
O=[N+]([O-])c1ccccc1S(=O)(=O)N1CCN(Cc2cc3c(cc2O)OCO3)CC1,"inconclusive: 3.98 µM [inhibitor, full curve]",–
N=c1c2c(-c3ccccc3)c(-c3ccccc3)oc2ncn1Cc1ccco1,"inconclusive: 14.1 µM [inhibitor, partial curve, poor fit]",–
COC(=O)c1ccc(C(=O)Nc2ccc(N)cc2N)cc1,active: 12.6 µM,–
CN(C)c1ccc(/C=C(\C#N)c2nc3ccccc3c(=O)[nH]2)cc1,"inconclusive: 20 µM [inhibitor, partial curve]",–
C=CCn1c(C#N)c(N)sc1=N,"inconclusive: 14.1 µM [inhibitor, partial curve]",–
Cc1ccc(NC(=O)CCl)c(C)c1,–,inactive: -8.52%
O=C(NCc1ccc(F)cc1)c1cccc(N2CCCS2(=O)=O)c1,–,inactive: 5.54%
C=C(CO)C1Cc2c(ccc3c2OC2COc4cc(OC)c(OC)cc4C2C3=O)O1 (stereo not given),"inconclusive: 17.8 µM [inhibitor, partial curve]",–
